{
  "source": "patent US11617740B2",
  "about": "“Chemical inhibitors of Mycobacterium tuberculosis DosRST signaling and persistence” (priority 2017, dated 2023)",
  "test_system": "DosRST pathway, CDC1551 (hspX′::GFP) reporter strain",
  "assay": "microbe, parasite or virus in culture",
  "format": "cell-based",
  "conditions": "Mycobacterium tuberculosis, Table 5, fluorescence inhibition, doses 200 μM to 0.328 μM",
  "data": [
    {"smiles": "O=C(Nc1ccc(Cl)cc1)Nc1ccno1", "note": "[HC106F, 1-(4-chlorophenyl)-3-(1,2-oxazol-5-yl)urea]", "values": [
      {"measurement": "EC50", "value": 1330, "unit": "nM"}
    ]}
  ]
}
